Hit rate of the full screen: of about 420,000 compounds, about 50,000 (12%) were called active. This list was built around the results that the source calls inconclusive (neither active nor inactive); the mix of calls is not that of the screen. The call rests on the fitted dose curve; in most records, active means well fitted inhibition curve with a large enough effect; inconclusive means small, poorly fitted or top-dose-only effect; inactive means flat fitted curve, though single readings scatter. No potency is given beside an inconclusive call; the fits are too rough.
Experiment: qHTS for Inhibitors of human tyrosyl-DNA phosphodiesterase 1 (TDP1): qHTS in cells in presence of CPT; further: nearly all actives have a fitted effect of over 55% in size
Settings: chicken DT40 Tdp1-/-;hTDP1 cells + 20 nM CPT, ATP luminescence, 48 h; series mostly up to 46.2 µM
Method in brief: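 Cell growth measured by CellTiter-Glo luminescence after a minimum 48 h, 37 C compound exposure with 20 nM CPT in Tdp1-knockout DT40 cells stably expressing hTDP1, seeded 400/well; qHTS titration format.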
Potency means the concentration at half of the fitted maximal effect; tags describe the fitted curve by direction and shape.

Structure (SMILES)	Potency
COC(=O)c1cccc(NC(=O)CCN2C(=O)C3CC=CCC3C2=O)c1 (stereo not given)	inactive
CC(NC(=O)c1ccccc1NC(=O)CN1CCN(c2ccccc2O)CC1)c1ccccc1 (stereo not given)	inconclusive [inhibitor, single point]
Cc1ccc(-c2c(CN3CCN(c4cccc(C)c4C)CC3)csc2C)cc1	active: 14.6 µM
CCc1noc(C)c1C(=O)N1CCN(c2cccc(Cl)c2)CC1	inconclusive [inhibitor, single point]
CN(Cc1ccccc1)C(=O)CSc1c2c(nc3ccc(Cl)cc13)CCCC2	inconclusive [inhibitor, single point]
CCc1cccc(NC(=O)COC(=O)c2ccccc2OCc2ccccc2Br)c1	inconclusive [inhibitor, single point]
OCCN(CCO)c1nc(N2CCCCC2)c2nc(N(CCO)CCO)nc(N3CCCCC3)c2n1	active: 4.55 µM
CC(C)(C)c1ccc(CC(=O)N2CCC2(C)C(=O)Nc2cccc3ccccc23)cc1 (stereo not given)	inconclusive [inhibitor, single point]
Cc1cc(O)c(C=O)c2c1C(=O)Oc1c(CO)c(O)c3c(c1O2)C(O)OC3=O (stereo not given)	inactive
Nc1c(Cl)cc(-c2cn(CCC(=O)O)c(-c3ccc(Cl)nc3)n2)cc1Cl	inactive
CC(C)(C)CN1CCC(n2nccc2NC(=O)c2ccccc2Cl)CC1	inactive
O=C(Nc1nccs1)c1ccc(-c2ccccc2[N+](=O)[O-])o1	inconclusive [inhibitor, single point]
Cc1cc(-c2ccc(Cl)cc2Cl)c(C#N)c(=O)[nH]1	inconclusive [inhibitor, single point]
Cc1cccc(C)c1NC(=O)CSc1nc(-c2cccs2)cc(C(F)(F)F)n1	active: 14.6 µM
Cc1[nH]c(C)c(S(=O)(=O)N2CCN(c3cccc(Cl)c3)CC2)c1C(=O)N1CCCC1	inconclusive [inhibitor, partial curve, poor fit]
O=C(c1nnc(-c2ccc(Cl)cc2)o1)C1CCCC1	inactive
CCOC(=O)N1CCN(Cc2nc3ccc([N+](=O)[O-])cc3c(=O)n2-c2cccc(OC)c2)CC1	inactive
O=C(Cn1[nH]c(=O)c2ccccc2c1=O)Nc1cccc(-c2nnc3n2CCCCC3)c1	inactive
CC(C)NC(=O)CCSc1nc(-c2ccc3c(c2)OCO3)cc(C(F)(F)F)n1	active: 13 µM
CCOC(=O)C1=C(CSc2nc3c(cc2C#N)CN(C)CC3)OC(N)=C(C#N)C1c1ccccc1 (stereo not given)	inconclusive [inhibitor, single point]

From PubChem BioAssay AID686979 (National Center for Advancing Translational Sciences (NCATS), 2013)
